Measured values: PubChem BioAssay AID686978 (National Center for Advancing Translational Sciences (NCATS), 2013)
Values joined by “and” are separate entries in the source; they are usually repeats but may differ in a detail not shown here. Identical values can stand only once. Out of some 420,000 compounds screened, about 64,000 (15%) were called active. Inconclusive results, whose numbers are uncertain, are shown with a selection of clear calls. Calls follow the shape of the dose curve; as a rule, active = well fitted inhibition curve with a large enough effect; inconclusive = small, poorly fitted or top-dose-only effect; inactive = flat fitted curve, though single readings scatter. Where the call is inconclusive, the potency comes from a doubtful curve fit.

assay: qHTS for Inhibitors of human tyrosyl-DNA phosphodiesterase 1 (TDP1): qHTS in cells in absence of CPT; details: DT40 Tdp1-/- hTDP1 cells, no CPT, ATP luminescence, 48 h; activity change, negative = growth inhibition: at 46.2 µM (top of the series) unless noted; also: nearly all actives have a fitted effect of over 55% in size
Method in brief: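 A cellular qHTS used chicken DT40 cells lacking endogenous Tdp1 but carrying stably transfected human TDP1. Compounds were applied without camptothecin, and cell growth kinetics were judged by ATP-dependent luminescence after ≥48 hr.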
% is scaled to controls: 0 for no effect and ±100 for the full control effect; potency is read from the fitted curve at half-maximal effect; tags tell the direction and shape of the fitted curve.

Structure (SMILES) | Potency | activity change, negative = growth inhibition
CC1(C(=O)NCc2ccc(C(F)(F)F)cc2)CCN1Cc1ccccc1OC(F)F (stereo unspecified) | active: 23.1 µM | 
CC(Oc1ccc(Br)cc1)C(=O)N(C)CC(=O)Nc1ccc(N2CCOCC2)cc1 (stereo unspecified) | inactive | 
COC1CCCN(C(=O)c2ccc3oc(Cc4ccc(Cl)cc4)nc3c2)C1 (stereo unspecified) | inconclusive: 29.1 µM [inhibitor, single point] | 
O=C(N/N=C/c1cc([N+](=O)[O-])ccc1O)/C(=C\c1cccs1)NC(=O)c1ccccc1 | inconclusive: 20.6 µM [inhibitor, single point] | 
Cc1cc(C)cc(NC(=O)[C@H](NC(=O)[C@@H]2Cc3ccccc3CN2)c2ccccc2)c1 | active: 25.9 µM | 
CCCCN(C)C(=O)C1CCC(CNS(=O)(=O)c2ccc3c(c2)CC(C)N3C(=O)C2CC2)CC1 (stereo unspecified) | active: 23.1 µM | 
COc1ccccc1CNC(=O)COC(=O)COc1ccccc1Cc1ccccc1 | inconclusive: 13 µM [inhibitor, single point] | 
COCCn1c(=O)c(CCc2ccccc2)nc2cnc(OCc3ccccc3)nc21 | inconclusive: 18.4 µM [inhibitor, single point] | 
O=S(=O)(c1ccccc1)N1CCC2(CCCN(c3ccccn3)C2)CC1 | active: 20.6 µM | 
COc1ccccc1C(=O)Nc1nc2nc(-c3ccccc3)cc(=O)n2[nH]1 | inconclusive: 20.6 µM [inhibitor, single point] and inconclusive: 29.1 µM [inhibitor, single point] | 
COCCCNC(=S)N1CCN(c2nc(-c3ccccc3)cs2)CC1 | active: 11.6 µM | 
CC1CC(C(O)c2ccccn2)C(=O)C(C(O)c2ccccn2)C1 (stereo unspecified) | inconclusive: 29.1 µM [inhibitor, single point] | 
COCC(=O)Nc1cc(C(=O)NC2Cc3ccccc3C2)cc2nc(-c3cccnc3)n(C)c12 | inactive | 
Cc1ccc(S(=O)(=O)N2CCOC23CCN(S(=O)(=O)c2c(C)cc(C)cc2C)CC3)cc1 | inconclusive: 29.1 µM [inhibitor, single point] | 
Cc1ccccc1NS(=O)(=O)c1ccc2[nH]cc(C(=O)NC(C)c3ccccc3)c(=O)c2c1 (stereo unspecified) | inconclusive: 18.4 µM [inhibitor, single point] | 
C=C1C(=O)[C@]23C[C@H]1CCC2[C@@]1(C)C(C[C@@H]3O)[C@](C)(C(=O)O)CC[C@@H]1O (stereo partly specified) | active: 6.51 µM | 
N#CCNC1CC(=O)N(c2ccc(F)cc2)C1=O (stereo unspecified) | inconclusive: 3.66 µM [inhibitor, partial curve] | 
COc1ccc(CN2CCc3nnc(CNC(=O)c4cc(C)oc4C)n3CC2)c2ccccc12 | inconclusive: 23.1 µM [inhibitor, single point] | 
COC(=O)C1CN(S(=O)(=O)c2ccc(C)cc2)CCN1S(=O)(=O)c1ccc(C)cc1 (stereo unspecified) | inconclusive: 20.6 µM [inhibitor, single point] | 
Cc1nc2ccccc2c2oc(C(=O)N3CC(C)CC(C)C3)cc12 (stereo unspecified) | inconclusive: 6.51 µM [inhibitor, single point] | 
O=C1NC[C@@H](CCCCN2C[C@H](Cc3ccc(O)cc3)N(CCc3ccc(O)cc3)C(=O)C2=O)N(CC2CCCCC2)C1=O |  | inconclusive: -31.7% [inhibitor]
COc1ccccc1CCNC(=O)C(=O)NCC(c1cccs1)S(=O)(=O)c1ccc(C)cc1 (stereo unspecified) | active: 20.6 µM | 
COc1ccc(/C=C(/C#N)C(=O)Nc2cccnc2)cc1OC | inactive | 
CCOC(=O)N1CCN(S(=O)(=O)c2ccc(C)c(C)c2C)CC1 | inconclusive: 29.1 µM [inhibitor, single point] | 

Structure (SMILES) | Potency | activity change, negative = growth inhibition
COc1ccc(Nc2nnc(-c3cc4c(ccc5ccccc54)oc3=O)s2)cc1 | inconclusive: 4.61 µM [inhibitor, single point] | 
O=[N+]([O-])c1cc(C(F)(F)F)ccc1NCC1CCCO1 (stereo unspecified) | inconclusive: 29.1 µM [inhibitor, single point] | 
Cc1ccc(C)c(CNC(=O)C2CCN(c3nc4ccccc4nc3C(F)(F)F)CC2)c1 |  | inconclusive: -32.1% [inhibitor]
Cc1cccc(C)c1NC(=O)C1c2ccccc2OCC(=O)N1CCc1c[nH]c2ccccc12 (stereo unspecified) | inactive | 
O=C(Nc1ccc(-c2noc(CCc3ccccc3)n2)cc1)c1cccnc1 | active: 11.6 µM | 
COc1cc2nc(N3CCCN(C)CC3)nc(OC3CCN(C)CC3)c2cc1OC | active: 14.1 µM | 
CCOc1ccccc1CNC(=O)Cn1ncn2nc(-c3cccs3)cc2c1=O | inactive | 
Cc1cc2nc(-c3ccc[nH]c3=O)[nH]c2cc1C | active: 10.3 µM | 
Cc1cccc(Nc2cc(C)c3c(O)cccc3n2)c1C | active: 23.1 µM | 
CCCc1[nH]nc2c1C(c1ccc(OC)c(Cn3nc(C)c(Br)c3C)c1)C(C#N)=C(N)O2 (stereo unspecified) | inconclusive: 20.6 µM [inhibitor, single point] | 
O=C(c1ccc(CNS(=O)(=O)c2cccc(C(F)(F)F)c2)cc1)N1CCOCC1 |  | inconclusive: -33.6% [inhibitor]
CS(=O)(=O)c1ccccc1-c1nc(-c2cccc(Cl)c2)no1 | inconclusive: 29.1 µM [inhibitor, single point] | 
CCc1nc2ccc(C(=O)N3CCCC(C(N)=O)C3)cn2c1N(C=O)CC (stereo unspecified) | inactive | 
C[C@H](CO)N1C[C@H](C)[C@@H](CN(C)Cc2ccc(C(=O)Nc3ccccc3N)cc2)Oc2c(NC(=O)C3CCCCC3)cccc2C1=O | active: 14.6 µM | 
COc1cccc(CN2CCC(C(=O)NC(C)c3cccc4ccccc34)CC2)c1 (stereo unspecified) | active: 16.4 µM | 
CCCCNC(=O)[C@H]1C[C@H]1[C@@H](O)[C@H](CO)NC(=O)[C@H](CC(C)C)NC(=O)OC(C)(C)C | inactive | 
CC(C)N(C(=O)[C@H]1CC(CC(=O)NC(C)(C)C)C(=O)N2CCc3c([nH]c4ccccc34)[C@]12C)C(C)C (stereo partly specified) | inconclusive: 20.6 µM [inhibitor, single point] | 
CC(C)COc1ccc(C/C(N)=N/n2cnnc2)cc1 | active: 5.8 µM | 
Cc1ccc2nc(NCCNC(=O)c3ccccc3)c(C#N)cc2c1 | inconclusive: 29.1 µM [inhibitor, single point] | 
O=C1C(=O)N(C2CCN(C(=O)c3ccc(Cl)cc3)CC2)CCN1Cc1ccc(F)cc1 | inconclusive: 20.6 µM [inhibitor, single point] | 
Brc1ccccc1Cn1cnc2ccccc21 | active: 20.6 µM | 
CC[C@@H](C)[C@H](CN[C@H](CNC)C(C)C)NC[C@@H](C)c1ccc(CC(C)C)cc1 | active: 1.46 µM | 
CC(=O)Nc1ccc(S(=O)(=O)NCCC(=O)Nc2ncccc2C)cc1 | inactive | 
Cc1[nH]c2ccccc2c1/C=N/Nc1nc(Nc2ccc(F)cc2)nc(N2CCOCC2)n1 | inactive | 

Structure (SMILES) | Potency | activity change, negative = growth inhibition
CC(C)(C)C(=O)O/N=C(\N)Cc1ccc(-c2csnn2)cc1 | inconclusive: 29.1 µM [inhibitor, single point] | 
CC1CN(S(=O)(=O)c2cccc(C(=O)NCc3ccccn3)c2)CC(C)O1 (stereo unspecified) | inactive | 
CC(Sc1nnc(C(C)Oc2ccccc2F)o1)C(=O)NCc1ccc2c(c1)OCO2 (stereo unspecified) | inactive | 
O=C(COc1cccc([N+](=O)[O-])c1)NN1C(=O)c2ccccc2C1=O | inactive | 
CCN1CCN(CCCNC(=O)c2cc3cc4ccc(OC)cc4nc3o2)CC1 | inconclusive: 25.9 µM [inhibitor, single point] | 
CC[C@H]1C(Nc2ccccc2)C[C@@H]2CCN3C(=O)CC[C@H]1[C@H]23 (stereo partly specified) | inconclusive: 18.4 µM [inhibitor, single point] | 
COCCNC(=O)C(C(=O)c1ccc(F)cc1)n1cc(C)ccc1=O (stereo unspecified) | inactive | 
COc1cc(NC(=O)c2cc(-c3ccc(C)cc3)on2)cc(OC)c1OC | inconclusive: 14.6 µM [inhibitor, partial curve] | 
Oc1c(CN2CCOCC2)ccc(CN2CCOCC2)c1O | inconclusive: 25.9 µM [inhibitor, single point] | 
CCOc1ccc2nc(SCC(=O)c3ccc(O)cc3O)sc2c1 | inconclusive: 29.1 µM [inhibitor, single point] | 
CS(=O)(=O)N(CC(=O)N1CCN(Cc2ccccc2)CC1)c1cccc(F)c1 | inactive | 
COc1ccc(-c2csc(N(Cc3ccccc3)C(=O)COc3ccc(Cl)cc3)n2)cc1 | active: 18.4 µM | 
Cc1ccc(/C=N/NC(=O)Cc2ccc(O)cc2)s1 | inactive | 
O=C(Nc1cccc2ncccc12)c1ccc(F)cc1 |  | inconclusive: -34.8% [inhibitor]
O=C(O)c1cccc(N2C(=O)c3cccc4c(Cl)ccc(c34)C2=O)c1 | inactive | 
O=C1c2ccccc2-c2onc3ccc(NCCCn4ccnc4)c1c23 | inconclusive: 23.1 µM [inhibitor, single point] | 
O=C(NCc1ccccn1)NC1CCCCC1 | inactive | 
Nc1ccc2nc3c(=O)n(CCc4ccccc4)c(=O)[nH]c3nc2c1 | inconclusive: 9.2 µM [inhibitor, partial curve] | 
CSc1ncc(F)c(N(CCO)CCO)n1 | inactive | 
O=C(CCCn1c(=S)[nH]c2cc3c(cc2c1=O)OCO3)N1CCN(c2ccccc2F)CC1 | active: 18.4 µM | 
CN1C[C@@H]2[C@@H]3C(=O)N(Cc4ccccc4)C(=O)[C@@H]3[C@](Cc3ccccc3)(C1=O)N2C(=O)c1ccc(Cl)c(Cl)c1 | inconclusive: 29.1 µM [inhibitor, single point] | 
Nc1nc2c(ncn2-c2ccccc2)c(=O)[nH]1 | inactive | 
CCOC(=O)C1=C(C)N=c2s/c(=C/c3ccc(OCC(=O)O)c(OC)c3)c(=O)n2C1c1ccc(Cl)cc1 (stereo unspecified) | inconclusive: 25.9 µM [inhibitor, single point] | 
